The supplement of paper PMC4967469
pIC50: −log10 of the molar value. A lower IC50 marks a more sensitive line; a fit beyond the top or the lowest dose is shown as a bound at that dose. AUC sums up the same curve from the lowest dose to the 256-fold higher top dose; the more sensitive the line, the further below 1. For some assays here: The top dose, if marked as inferred, was derived from the fitted curves, not read from the paper. For some assays here: An entry number marks a drug with two screens in the source, which often give different values.

Tests used:
Test in all cases: Viability of human cancer cell lines after 72 h of drug (GDSC screen)
TPCA-1 = compound: NC(=O)Nc1sc(-c2ccc(F)cc2)cc1C(N)=O [TPCA-1]; conditions: top dose 20 µM
Experimental: (§1)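 Human cancer cell lines in 384-well plates, medium with 10% serum, drug for 72 h over a 256-fold dose range (nine 2-fold or five 4-fold steps up to the top dose). Adherent lines were fixed and stained with the nucleic acid dye Syto60, suspension lines read with resazurin; signal relative to control wells, capped at 0 and 100%. One two-parameter sigmoid per drug and line, fitted in a mixed model over all curves with the slope shared within a line.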

Epothilone B = compound: C/C(=C\c1csc(C)n1)[C@@H]1C[C@@H]2O[C@]2(C)CCC[C@H](C)[C@H](O)[C@@H](C)C(=O)C(C)(C)[C@@H](O)CC(=O)O1 [Epothilone B]; conditions: top dose 0.032 µM; top dose inferred
Experimental: as §1

Y-39983 = compound: C[C@@H](N)c1ccc(C(=O)Nc2ccnc3[nH]ccc23)cc1 [Y-39983]; conditions: top dose 20 µM; top dose inferred
Experimental: as §1

PHA-793887 = compound: CC(C)CC(=O)Nc1n[nH]c2c1CN(C(=O)C1CCN(C)CC1)C2(C)C [PHA-793887]; conditions: top dose 10.24 µM
Experimental: as §1

PLX4720 = compound: CCCS(=O)(=O)Nc1ccc(F)c(C(=O)c2c[nH]c3ncc(Cl)cc23)c1F [PLX4720]; conditions: top dose 10 µM
Experimental: as §1

[1] = screen: GDSC drug entry 1371, top dose inferred

Cell Line | AUC (TPCA-1) | pIC50 (TPCA-1) | AUC (Epothilone B) | pIC50 (Epothilone B) | AUC (Y-39983) | pIC50 (Y-39983) | AUC (PHA-793887) | pIC50 (PHA-793887) | AUC (PLX4720; screen: GDSC drug entry 1036) | pIC50 (PLX4720; screen: GDSC drug entry 1036) | AUC (PLX4720; [1]) | pIC50 (PLX4720; [1])
OVKATE (ovary, adherent) | 0.631 | 5.43 | 0.979 | < 7.49 | 0.967 | < 4.70 | 0.893 | < 4.99 | 0.979 | < 5.00 | 0.977 | < 5.00
OVMIU (ovary, adherent) | 0.764 | 5.04 | 0.588 | 8.43 | 0.958 | < 4.70 | 0.81 | 5.15 | 0.878 | < 5.00 | 0.978 | < 5.00
OVTOKO (ovary, adherent) | 0.834 | 4.74 | 0.609 | 8.36 | 0.934 | < 4.70 | 0.92 | < 4.99 | 0.85 | < 5.00 | 0.952 | < 5.00
P12-ICHIKAWA (T-cell lymphoblastic leukaemia, suspension) | 0.806 | 5.12 | 0.72 | 8.15 | 0.957 | < 4.70 | 0.669 | 5.78 | 0.98 | < 5.00 | 0.994 | < 5.00
PA-1 (ovary, adherent) | 0.37 | 6.22 | 0.33 | 9.12 | 0.92 | 4.72 | 0.148 | 7.12 | 0.881 | 5.18 |  | 
PA-TU-8902 (pancreas, adherent) | 0.712 | 5.25 | 0.788 | 7.78 | 0.896 | < 4.70 | 0.85 | 5.01 | 0.974 | < 5.00 | 0.976 | < 5.00
PA-TU-8988T (pancreas, adherent) | 0.957 | < 4.70 | 0.396 | 8.99 | 0.974 | < 4.70 | 0.844 | 5.13 |  |  | 0.986 | < 5.00
PANC-02-03 (pancreas, adherent) | 0.642 | 5.47 | 0.726 | 8.00 | 0.972 | < 4.70 | 0.9 | < 4.99 | 0.981 | < 5.00 | 0.974 | < 5.00
PANC-03-27 (pancreas, adherent) | 0.802 | 5.04 | 0.246 | 9.40 | 0.963 | < 4.70 | 0.725 | 5.58 | 0.983 | < 5.00 | 0.978 | < 5.00
PANC-04-03 (pancreas, adherent) | 0.958 | < 4.70 | 0.762 | 7.73 | 0.978 | < 4.70 | 0.973 | < 4.99 | 0.958 | < 5.00 |  | 
PANC-08-13 (pancreas, adherent) | 0.734 | 5.15 | 0.81 | 7.64 | 0.939 | < 4.70 | 0.668 | 5.67 |  |  | 0.981 | < 5.00
PANC-10-05 (pancreas, adherent) | 0.89 | < 4.70 | 0.453 | 8.84 | 0.959 | < 4.70 | 0.752 | 5.37 | 0.918 | < 5.00 | 0.979 | < 5.00
PC-3 (prostate, adherent) | 0.846 | 4.71 | 0.796 | 7.72 | 0.957 | < 4.70 | 0.795 | 5.22 | 0.904 | < 5.00 | 0.98 | < 5.00
PC-3 [JPC-3] (lung adenocarcinoma, adherent) | 0.762 | 5.03 | 0.645 | 8.24 | 0.967 | < 4.70 | 0.82 | 5.07 | 0.971 | < 5.00 | 0.938 | < 5.00
PC-14 (lung adenocarcinoma, adherent) | 0.847 | 4.91 | 0.616 | 8.40 | 0.956 | < 4.70 | 0.756 | 5.50 | 0.952 | < 5.00 | 0.965 | < 5.00
PCI-4B (head and neck, adherent) | 0.866 | 4.79 | 0.269 | 9.34 | 0.953 | < 4.70 | 0.652 | 5.78 | 0.909 | < 5.00 | 0.964 | < 5.00
PCI-6A (head and neck, adherent) | 0.734 | 5.24 | 0.238 | 9.45 | 0.945 | < 4.70 | 0.751 | 5.48 | 0.915 | < 5.00 | 0.986 | < 5.00
PCI-15A (head and neck, adherent) | 0.976 | < 4.70 | 0.609 | 8.40 | 0.984 | < 4.70 | 0.832 | 5.18 | 0.982 | < 5.00 | 0.986 | < 5.00
PCI-30 (head and neck, adherent) | 0.942 | < 4.70 | 0.985 | < 7.49 | 0.968 | < 4.70 | 0.962 | < 4.99 | 0.968 | < 5.00 | 0.983 | < 5.00
PCI-38 (head and neck, adherent) | 0.837 | 4.87 | 0.581 | 8.48 | 0.948 | < 4.70 | 0.827 | 5.20 |  |  | 0.984 | < 5.00
PE/CA-PJ15 (head and neck, adherent) | 0.955 | < 4.70 | 0.953 | < 7.49 | 0.978 | < 4.70 | 0.951 | < 4.99 | 0.977 | < 5.00 | 0.937 | < 5.00
PFSK-1 (medulloblastoma, adherent) | 0.858 | 4.74 | 0.783 | 7.84 | 0.892 | < 4.70 | 0.635 | 5.81 | 0.922 | < 5.00 | 0.983 | < 5.00
